{"source": "the supplement of paper PMC11417369", "note": "± gives the standard deviation of the averaged measurements. This is one part of the list."}
{"test_system": "PfAP2-G AP2 domain (GST-tagged)", "assay": "gcPBM binding intensity (ln(normalized median fluorescence intensity)); higher = stronger DNA binding", "how_it_was_run": "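Binding intensity is defined as the maximum Masliner-normalised natural-log median intensity across replicate spots for either probe orientation. It was measured on an Agilent 4 × 180k array of primer-extended double-stranded 36-bp intergenic genomic probes and negative controls, to which GST-tagged P. falciparum DNA-binding domains made in E. coli were applied for 1 h in 1× PBS with 1% milk, 0.2 mg/ml BSA, 0.5% salmon testes DNA and 0.03% Triton X-100. Detection was by Alexa488 anti-GST antibody and scanning at 488 nm.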"}
{"sequence": "AGGATATAAAGTTGTGCATGTCAAGTGCACCGTATT [TGCATGCA_site451]", "gcPBM binding intensity (ln)": "10.5 ± 0.25"}
{"sequence": "AGAAAAATCTAAATTCGTACATAACGTTTAAACATA [XGTACX_site2511]", "gcPBM binding intensity (ln)": "10.9 ± 0.69"}
{"sequence": "GATGTGTATATTAAATGTACGAACAGTTGAGGCGAA [XGTACX_site7853]", "gcPBM binding intensity (ln)": "10.9 ± 0.44"}
{"sequence": "ATAAATTGAAGTAAATTTGACCTTTTTTTTTTTTTT [GTGCAC_negctrl_site354]", "gcPBM binding intensity (ln)": "10.2 ± 0.21"}
{"sequence": "ATAATAATATGTGGGTGTACATATACACATATATAT [XGTACX_site4356]", "gcPBM binding intensity (ln)": "11.3 ± 0.71"}
{"sequence": "GTTTTATTCCATTATTGTACTTAATATAAAGAAACT [XGTACX_site3054]", "gcPBM binding intensity (ln)": "11.3 ± 0.96"}
{"sequence": "AGAACATGCAAACATGCACACAGAAAAAAAAAATAT [CACACA_site8442]", "gcPBM binding intensity (ln)": "10.1 ± 0.23"}
{"sequence": "TGCTTAGCACACTATCTACTTCCTTTGTTTCATAAA [GTGCAC_negctrl_site495]", "gcPBM binding intensity (ln)": "10.1 ± 0.11"}
{"sequence": "TTAGAAAGAATGTATTGTACATATATATTATATATA [XGTACX_site7045]", "gcPBM binding intensity (ln)": "10.8 ± 0.57"}
{"sequence": "ATATGTTTATTTATTTGTACTTATCATATAATAACA [XGTACX_site5486]", "gcPBM binding intensity (ln)": "11.2 ± 0.76"}
{"sequence": "TGTATATTTTAGTGATGTACTAATATTATTACTAAT [XGTACX_site3952]", "gcPBM binding intensity (ln)": "11 ± 0.76"}
{"sequence": "TTCATTTATATAATCACACATTTTATCATCTATGTT [CACACA_site4327]", "gcPBM binding intensity (ln)": "10.1 ± 0.16"}
{"sequence": "AAAATTTAGCAAAGGTGTACAAAAGATAATTAGAGT [XGTACX_site3467]", "gcPBM binding intensity (ln)": "11.4 ± 0.78"}
{"sequence": "TTTTTTAAATATATTTGTACATATGAAATAAAGATA [XGTACX_site3841]", "gcPBM binding intensity (ln)": "10.9 ± 0.66"}
{"sequence": "AAAATTATTATGAAAAGTACAAATATGTAAACATAC [XGTACX_site5517]", "gcPBM binding intensity (ln)": "11.1 ± 0.76"}
{"sequence": "ATCGTTATATAATGTTGTACTTGTTATATATATATA [XGTACX_site7582]", "gcPBM binding intensity (ln)": "11.4 ± 0.84"}
{"sequence": "GCATGCACGGAAAAAAGTACATATATAAATTTGGTT [XGTACX_site3393]", "gcPBM binding intensity (ln)": "11.6 ± 1.2"}
{"sequence": "GGTTCTAAAAAGGGAAGTACATGGAAAAATATAAAT [XGTACX_site4639]", "gcPBM binding intensity (ln)": "11.6 ± 1.1"}
{"sequence": "TTTTTCACATCTATAAATCATCTAATCAATATTTTT [GTGCAC_negctrl_site444]", "gcPBM binding intensity (ln)": "9.675 ± 0.064"}
{"sequence": "ATTCTAATTAGTAAAGTGCAGATAAAATGATGCCCT [GTGCAC_site9578]", "gcPBM binding intensity (ln)": "10.1 ± 0.17"}
{"sequence": "AATATATTTTGATATGAACAATTAATAATTTCAAAT [GTGCAC_negctrl_site170]", "gcPBM binding intensity (ln)": "9.825 ± 0.049"}
{"sequence": "GGAGCTATCTCCTGCACACACAATTTTTTTTTTTTT [CACACA_site2240]", "gcPBM binding intensity (ln)": "9.865 ± 0.092"}
{"sequence": "AAGGATACGCAAAAATGTACAAAATGCTTATAAATA [XGTACX_site984]", "gcPBM binding intensity (ln)": "11.1 ± 0.54"}
{"sequence": "GCACATATGAATATAATACACACTTGTATTATTAAT [CACACA_site1841]", "gcPBM binding intensity (ln)": "10 ± 0.11"}
{"sequence": "ATTTTATATACAAAATGTACATATTTATTATATATG [XGTACX_site6732]", "gcPBM binding intensity (ln)": "11.2 ± 0.76"}
{"sequence": "ATACATATCTACCTATGTACATAATACAACAAAGAT [XGTACX_site323]", "gcPBM binding intensity (ln)": "11.1 ± 0.58"}
{"sequence": "GAATAAATACCGGTGTGTACTTAAATCATTCACGAA [XGTACX_site3174]", "gcPBM binding intensity (ln)": "11.3 ± 0.8"}
{"sequence": "ATTAAAATCATATACACACCCATATATATATATATA [CACACA_site5050]", "gcPBM binding intensity (ln)": "10.1 ± 0.22"}
{"sequence": "TTTTATTTTTAAGGATGTACTCAATTGTTTATATAC [XGTACX_site3965]", "gcPBM binding intensity (ln)": "11.4 ± 0.91"}
{"sequence": "TGAGTATATAAATACACACACATATATATATTTTAA [CACACA_site5130]", "gcPBM binding intensity (ln)": "9.91 ± 0.11"}
{"sequence": "ATATATATATATATATGTACACATATATATACTCAC [XGTACX_site8043]", "gcPBM binding intensity (ln)": "11.5 ± 0.79"}
{"sequence": "TATATTTAAATTCTTTCAAATCATGTTGTAATTTTT [CACACA_negctrl_site1349]", "gcPBM binding intensity (ln)": "9.71 ± 0.15"}
{"sequence": "ATACACTTAATATTATGTACATATATAAAAAAAATA [XGTACX_site1500]", "gcPBM binding intensity (ln)": "11.3 ± 0.76"}
{"sequence": "TATAAAAATAATATTACACACATGTAAAATGGGGGT [CACACA_site9071]", "gcPBM binding intensity (ln)": "10.9 ± 0.57"}
{"sequence": "AGGAATATCGAAAACTGTACTTGTATGTTTCATAAA [XGTACX_site6143]", "gcPBM binding intensity (ln)": "11.2 ± 0.75"}
{"sequence": "TATTTTATATGAGGCACACAAATTTTAATTGTTATT [CACACA_site725]", "gcPBM binding intensity (ln)": "10 ± 0.057"}
{"sequence": "ATTTATTTATTTTTTTGTACTTATAATTTTTATTAT [XGTACX_site2656]", "gcPBM binding intensity (ln)": "11.3 ± 0.75"}
{"sequence": "AATTGTATGTATGCCTGTACATATGTCTATCTTAAG [XGTACX_site1927]", "gcPBM binding intensity (ln)": "10.8 ± 0.61"}
{"sequence": "TTATATATAGATCACACACACACACCGGTTTTAAAA [CACACA_site4220]", "gcPBM binding intensity (ln)": "10.1 ± 0.16"}
{"sequence": "AAATTTTAATTAGGAACACACATATATATATATATA [CACACA_site5673]", "gcPBM binding intensity (ln)": "10.1 ± 0.42"}
{"sequence": "TATTTATCTATATATTGTACTTATTAGTCTTAATGT [XGTACX_site4242]", "gcPBM binding intensity (ln)": "11.3 ± 0.79"}
{"sequence": "TCTTTTTTAATATAATATATTTTTATTAAGTAAATC [TGCATGCA_negctrl_site408]", "gcPBM binding intensity (ln)": "9.78 ± 0.085"}
{"sequence": "TAAATTTATGGACACACACACATATATATATATATA [CACACA_site4620]", "gcPBM binding intensity (ln)": "11.2 ± 0.9"}
